# Reference: PubChem BioAssay (Tox21)
# The shares of active, inactive and inconclusive entries below differ from those in the screen. For some assays here: No potency is given beside an inconclusive call; the fits are too rough. Activity calls are given as the source filed them. Unless noted, calls come from the whole dose curve; as a rule, active = well fitted curve in the direction sought with a large enough effect in the repeat runs; inconclusive = weak or mixed curves; inactive = no such curve, though single readings can be large; an effect the other way counts as inactive or inconclusive.
# What was measured:
# [1] = qHTS assay for small molecules that induce genotoxicity in human embryonic kidney cells expressing luciferase-tagged ATAD5 - cell viability (AID 651634; calls by dose curve; note: nearly all actives have a fitted effect of over 25% in size; note: potency is the fitted concentration of half-maximal effect)
# How it was run: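 HEK293T cells carrying luciferase-tagged ATAD5, 2,000 cells/well, exposed to compound for 15.5 hr at 37C. Viability read as live-cell protease activity by CellTiter-Fluor fluorescence after 30 min at 37C.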
# [2] = qHTS assay for small molecule disruptors of the mitochondrial membrane potential (AID 720635); conditions: HepG2 mitochondrial membrane potential, Mito-MPS dye ratio; ratio activity, negative = MMP loss: at 83.2 µM (top of the series) unless noted; note: potency is the fitted concentration of half-maximal effect
# How it was run: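 HepG2 cells (2,000/well) attached overnight at 37C, then took compound for 1 hr at 37C, 5% CO2. Mito-MPS dye was added for 30 min; fluorescence was read at 490/535 nm (monomers) and 540/590 nm (aggregates).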
# [3] = qHTS assay for identifying genotoxic compounds that show differential cytotoxicity against isogenic chicken DT40 cell lines with known DNA damage response pathways - Rev3 mutant cell line (AID 743014); conditions: chicken DT40 Rev3-/- viability, CellTiter-Glo, 40 h; activity, negative = cytotoxicity: at 68.4 µM (top of the series) unless noted; note: nearly all actives have a fitted effect of over 55% in size; note: potency is the fitted concentration of half-maximal effect
# [4] = qHTS assay for identifying genotoxic compounds that show differential cytotoxicity against isogenic chicken DT40 cell lines with known DNA damage response pathways - Rad54/Ku70 mutant cell line (AID 743015); conditions: DT40 Rad54/Ku70 mutant viability, CellTiter-Glo, 40 h; activity change, negative = cytotoxicity: at 66.8 µM (top of the series) unless noted; note: potency is the fitted concentration of half-maximal effect; nearly all actives have a fitted effect of over 60% in size
# [5] = qHTS assay to identify small molecule antagonists of the thyroid receptor (TR) signaling pathway - cell viability counter screen (AID 743064); conditions: GH3.TRE-Luc viability, CellTiter-Fluor, 24 h; activity change, negative = cytotoxic: at 70.3 µM (top of the series) unless noted; note: nearly all actives have a fitted effect of over 50% in size; note: potency is the fitted concentration of half-maximal effect
# How it was run: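 GH3.TRE-Luc rat pituitary cells dosed after 4 hr plating, co-stimulated with T3 at 1 nM final, incubated 23.5 h at 37 C. Viability measured in the same wells by CellTiter-Fluor fluorescence after 30 min further at 37 C.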
# [6] = target: Estrogen receptor (Homo sapiens) (UniProt P03372); assay: qHTS assay to identify small molecule antagonists of the estrogen receptor alpha (ER-alpha) signaling pathway (AID 743069; active = well fitted curve in the direction sought with a large enough effect in the signal ratio in the repeat runs, not every such curve was filed as active; inconclusive = weak or mixed curves, or effect the other way; inactive = no such curve, though single readings can be large or run the other way; the % refers to the signal ratio; note: potency is the fitted concentration of half-maximal effect); conditions: HEK293 ER-alpha-UAS-bla, beta-lactamase ratio, antagonist mode; activity, negative = inhibition: at 69.4 µM (top of the series) unless noted
# How it was run: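 Estradiol-stimulated ER-alpha-UAS-bla HEK293 cells, 18 hr compound exposure at 37C. LiveBLAzer B/G substrate, 2 hr RT, fluorescence read.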
# [7] = target: Aromatase (Homo sapiens) (UniProt P11511); assay: qHTS assay to identify aromatase inhibitors (AID 743083); note: potency is the fitted concentration of half-maximal effect; nearly all actives have a fitted effect of over 55% in size
# [8] = qHTS assay to identify aromatase inhibitors - cell viability counter screen (AID 743084); conditions: MCF-7 aro ERE viability, CellTiter-Fluor, 24 h; activity change, negative = cytotoxicity: at 70.3 µM (top of the series) unless noted;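 note: cells stimulated with testosterone during compound exposure; nearly all actives have a fitted effect of over 55% in size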; note: potency is the fitted concentration of half-maximal effect
# [9] = qHTS assay to identify small molecule that activate the aryl hydrocarbon receptor (AhR) signaling pathway - cell viability counter screen (AID 743086); note: potency is the fitted concentration of half-maximal effect; nearly all actives have a fitted effect of over 45% in size
# How it was run: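 HepG2-AhR-luc (HG2L7.5c1) cells, 4000/well, were preincubated 5 h at 37C, exposed to compound in qHTS format for 24 hr at 37C, then given CellTiter-Fluor for 30 min; viability was read as fluorescence in the reporter wells.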
# [10] = target: Peroxisome proliferator-activated receptor gamma (Homo sapiens) (UniProt P37231); assay: qHTS assay to identify small molecule agonists of the peroxisome proliferator-activated receptor gamma (PPARg) signaling pathway (AID 743094; active = well fitted activation curve with a large enough effect in the signal ratio in the repeat runs, not every such curve was filed as active; inconclusive = weak or mixed curves, or effect the other way; inactive = no such curve, though single readings can be large or run the other way; the % refers to the signal ratio; note: potency is the fitted concentration of half-maximal effect); conditions: HEK293H PPARg-UAS-bla, beta-lactamase FRET ratio, 17 h; activation: at 57 µM (top of the series) unless noted
# How it was run: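 GeneBLAzer PPARg UAS-bla HEK293H cells were plated, rested 5 h, then exposed to compounds for 17 h at 37C. Beta-lactamase activity was read by LiveBLAzer B/G FRET substrate fluorescence after 1 h at room temperature.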
# [11] = qHTS assay for small molecule disruptors of the mitochondrial membrane potential - cell viability (AID 720634; calls by dose curve;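 note: human HepG2 liver cancer cells; % is set by controls: 0 for no effect and ±100 for the full control effect; nearly all actives have a fitted effect of over 20% in size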)
# How it was run: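 HepG2 cells, 2,000 per well, attached overnight, then treated 1 hr at 37 C, 5% CO2. Viability read as ATP by CellTiter-Glo luminescence after 30 min at room temperature. Read in the same wells as the m-MPI membrane-potential dye assay.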
# [12] = target: Glucocorticoid receptor (Homo sapiens) (UniProt P04150); assay: qHTS assay to identify small molecule antagonists of the glucocorticoid receptor (GR) signaling pathway (AID 720692; active = well fitted inhibition curve with a large enough effect in the signal ratio in the repeat runs, not every such curve was filed as active; inconclusive = weak or mixed curves, or effect the other way; inactive = no such curve, though single readings can be large or run the other way; the % refers to the signal ratio; note: % is set by controls: 0 for no effect and ±100 for the full control effect); conditions: GR-bla HeLa, beta-lactamase FRET ratio, dexamethasone-stimulated, 18 h; activity change, negative = inhibition: at 58.5 µM (top of the series) unless noted
# How it was run: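 GR-bla HeLa cells carrying a GRE-driven beta-lactamase reporter received compound after 4 h plating, then dexamethasone (5 nM final). After 18 h at 37C, the FRET substrate was loaded for 2 h at room temperature and fluorescence read.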
# [13] = target: Glucocorticoid receptor (Homo sapiens) (UniProt P04150); assay: qHTS assay to identify small molecule agonists of the glucocorticoid receptor (GR) signaling pathway (AID 720691; active = well fitted activation curve with a large enough effect in the signal ratio in the repeat runs, not every such curve was filed as active; inconclusive = weak or mixed curves, or effect the other way; inactive = no such curve, though single readings can be large or run the other way; the % refers to the signal ratio; note: % is set by controls: 0 for no effect and ±100 for the full control effect); conditions: GR-bla HeLa, beta-lactamase reporter ratio, 18 h; activation: at 62.4 µM (top of the series) unless noted
# How it was run: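 GR-bla HeLa cells carrying a GRE-driven beta-lactamase reporter, exposed to compounds for 18 h at 37 C. Reporter activation read as fluorescence after 2 h with LiveBLAzer B/G FRET substrate at room temperature.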
# [14] = qHTS assay for small molecule agonists of the p53 signaling pathway - cell viability (AID 651633; calls by dose curve;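 note: p53RE-bla HCT reporter cells with a stable beta-lactamase p53 reporter; % is set by controls: 0 for no effect and ±100 for the full control effect; nearly all actives have a fitted effect of over 30% in size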)
# How it was run: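 p53RE-bla cells, seeded at 4,000 per well and rested 5 h at 37 C/5% CO2, received compounds in DMSO for 16 h at 37 C. CellTiter-Glo was then added, and luminescence was read after 30 min at room temperature to gauge cytotoxicity.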
# [15] = qHTS assay to identify small molecule antagonists of the thyroid receptor (TR) signaling pathway (AID 743065); note: potency is the fitted concentration of half-maximal effect; nearly all actives have a fitted effect of over 55% in size
# How it was run: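 GH3.TRE-Luc rat pituitary cells carrying two TR response elements driving luciferase were plated for 4 h, given compound plus 1 nM T3 (final), and incubated 23.5 h at 37 C. ONE-Glo luminescence measured reporter inhibition; CellTiter-Fluor fluorescence tracked cytotoxicity.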
# [16] = target: Androgen receptor (Homo sapiens) (UniProt P10275); assay: qHTS assay to identify small molecule antagonists of the androgen receptor (AR) signaling pathway (AID 743035; active = well fitted inhibition curve with a large enough effect in the signal ratio in the repeat runs, not every such curve was filed as active; inconclusive = weak or mixed curves, or effect the other way; inactive = no such curve, though single readings can be large or run the other way; the % refers to the signal ratio; note: % is set by controls: 0 for no effect and ±100 for the full control effect); conditions: HEK293 AR-UAS-bla, R1881-stimulated, beta-lactamase FRET, 16 h; activity change, negative = inhibition: at 58.5 µM (top of the series) unless noted
# How it was run: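 HEK293 cells stably carrying UAS-beta-lactamase reporter, 2,000/well, given compounds plus R1881 agonist and incubated 16 h at 37C. LiveBLAzer B/G FRET substrate then added for 2 h at room temperature before fluorescence reading.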
# [17] = target: Estrogen receptor (Homo sapiens) (UniProt P03372); assay: qHTS assay to identify small molecule agonists of the estrogen receptor alpha (ER-alpha) signaling pathway using the BG1 cell line (AID 743079); conditions: BG1Luc4E2 cells, ERE-luciferase agonist, 22 h; activation: at 70.3 µM (top of the series) unless noted; note: nearly all actives have a fitted effect of over 20% in size; note: potency is the fitted concentration of half-maximal effect
# [18] = qHTS assay to test for compound auto fluorescence at 460 nm (blue) in HepG2 cells (AID 720687); note: potency is the fitted concentration of half-maximal effect
# How it was run: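 Cells (2,000/well in MEM with 10% FBS) attached overnight at 37 C, then were exposed to compound or DMSO for 1 hr at 37 C, 5% CO2. Fluorescence read at Ex/Em 405/460 nm, expressed as triamterene-equivalent signal.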
# [19] = target: Androgen receptor (Homo sapiens) (UniProt P10275); assay: qHTS assay to identify small molecule agonists of the androgen receptor (AR) signaling pathway (AID 743036; active = well fitted activation curve with a large enough effect in the signal ratio in the repeat runs, with a control signal flat, not every such curve was filed as active; inconclusive = weak or mixed curves, or effect the other way; inactive = no such curve, though single readings can be large or run the other way; the % refers to the signal ratio; note: potency is the fitted concentration of half-maximal effect); conditions: HEK293 AR-UAS-bla GripTite, beta-lactamase FRET ratio, 16 h; activation: at 62.4 µM (top of the series) unless noted
# How it was run: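 AR-UAS-bla HEK293 cells, plated 4 h before dosing, were treated with compound for 16 h at 37C. beta-Lactamase reporter read after 2 h with LiveBLAzer B/G FRET substrate at room temperature.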
# [20] = qHTS assay to identify small molecule antagonists of the estrogen receptor alpha (ER-alpha) signaling pathway - cell viability counter screen (AID 743074; calls by dose curve;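 note: HEK293 cells carrying ER-alpha-UAS-bla reporter stimulated with 17beta-estradiol; potency is the fitted concentration of half-maximal effect; nearly all actives have a fitted effect of over 45% in size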)
# [21] = target: Estrogen receptor (Homo sapiens) (UniProt P03372); assay: qHTS assay to identify small molecule agonists of the estrogen receptor alpha (ER-alpha) signaling pathway (AID 743075; calls by dose curve;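 note: HEK293 GripTite cells with ER-alpha and UAS-driven beta-lactamase reporter; % is set by controls: 0 for no effect and ±100 for the full control effect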); conditions: HEK293 ER-alpha-UAS-bla, beta-lactamase FRET ratio, 18 h; activation: at 70.1 µM (top of the series)
# Tags give direction and shape of the fitted curve or compound fluorescence and quenching.
# Chain of UniProt P04150 (P04150 whole entry, looked up): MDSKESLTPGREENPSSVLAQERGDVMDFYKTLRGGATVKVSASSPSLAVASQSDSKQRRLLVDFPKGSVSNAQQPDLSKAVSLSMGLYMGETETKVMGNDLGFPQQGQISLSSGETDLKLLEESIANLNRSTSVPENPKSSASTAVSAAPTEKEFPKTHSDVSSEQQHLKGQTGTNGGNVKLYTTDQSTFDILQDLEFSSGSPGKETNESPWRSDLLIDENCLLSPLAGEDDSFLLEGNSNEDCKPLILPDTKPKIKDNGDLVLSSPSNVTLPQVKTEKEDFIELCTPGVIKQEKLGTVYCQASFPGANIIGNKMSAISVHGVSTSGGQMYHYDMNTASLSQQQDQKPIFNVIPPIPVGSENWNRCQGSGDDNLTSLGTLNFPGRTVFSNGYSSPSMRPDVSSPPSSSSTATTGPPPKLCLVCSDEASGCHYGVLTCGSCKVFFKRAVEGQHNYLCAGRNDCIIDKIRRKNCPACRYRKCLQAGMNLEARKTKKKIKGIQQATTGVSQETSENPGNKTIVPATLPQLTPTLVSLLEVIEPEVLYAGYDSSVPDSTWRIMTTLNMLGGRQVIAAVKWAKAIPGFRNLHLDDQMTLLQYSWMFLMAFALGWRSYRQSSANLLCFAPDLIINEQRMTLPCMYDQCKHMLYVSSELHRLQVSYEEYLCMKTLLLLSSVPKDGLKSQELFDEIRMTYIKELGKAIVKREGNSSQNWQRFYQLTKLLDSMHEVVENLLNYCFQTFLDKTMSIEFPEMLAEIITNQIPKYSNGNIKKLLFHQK
# Chain of UniProt P03372 (P03372 whole entry, looked up): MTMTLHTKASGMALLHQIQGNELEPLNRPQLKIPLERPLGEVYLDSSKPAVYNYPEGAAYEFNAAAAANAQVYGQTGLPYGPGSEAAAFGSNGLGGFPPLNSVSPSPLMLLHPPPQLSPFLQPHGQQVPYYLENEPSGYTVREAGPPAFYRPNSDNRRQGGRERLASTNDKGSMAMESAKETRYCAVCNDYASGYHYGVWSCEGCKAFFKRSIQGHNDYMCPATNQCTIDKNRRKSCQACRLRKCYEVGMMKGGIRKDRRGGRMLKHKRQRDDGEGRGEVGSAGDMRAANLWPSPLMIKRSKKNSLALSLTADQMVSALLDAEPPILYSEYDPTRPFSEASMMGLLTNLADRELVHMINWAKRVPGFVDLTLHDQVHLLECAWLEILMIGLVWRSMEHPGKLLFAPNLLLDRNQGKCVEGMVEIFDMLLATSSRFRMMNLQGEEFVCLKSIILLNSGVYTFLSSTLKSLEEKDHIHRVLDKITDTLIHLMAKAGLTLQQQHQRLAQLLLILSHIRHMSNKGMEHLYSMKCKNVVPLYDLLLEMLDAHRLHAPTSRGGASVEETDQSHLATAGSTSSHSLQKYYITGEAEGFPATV
# Chain of UniProt P10275 (P10275 whole entry, looked up): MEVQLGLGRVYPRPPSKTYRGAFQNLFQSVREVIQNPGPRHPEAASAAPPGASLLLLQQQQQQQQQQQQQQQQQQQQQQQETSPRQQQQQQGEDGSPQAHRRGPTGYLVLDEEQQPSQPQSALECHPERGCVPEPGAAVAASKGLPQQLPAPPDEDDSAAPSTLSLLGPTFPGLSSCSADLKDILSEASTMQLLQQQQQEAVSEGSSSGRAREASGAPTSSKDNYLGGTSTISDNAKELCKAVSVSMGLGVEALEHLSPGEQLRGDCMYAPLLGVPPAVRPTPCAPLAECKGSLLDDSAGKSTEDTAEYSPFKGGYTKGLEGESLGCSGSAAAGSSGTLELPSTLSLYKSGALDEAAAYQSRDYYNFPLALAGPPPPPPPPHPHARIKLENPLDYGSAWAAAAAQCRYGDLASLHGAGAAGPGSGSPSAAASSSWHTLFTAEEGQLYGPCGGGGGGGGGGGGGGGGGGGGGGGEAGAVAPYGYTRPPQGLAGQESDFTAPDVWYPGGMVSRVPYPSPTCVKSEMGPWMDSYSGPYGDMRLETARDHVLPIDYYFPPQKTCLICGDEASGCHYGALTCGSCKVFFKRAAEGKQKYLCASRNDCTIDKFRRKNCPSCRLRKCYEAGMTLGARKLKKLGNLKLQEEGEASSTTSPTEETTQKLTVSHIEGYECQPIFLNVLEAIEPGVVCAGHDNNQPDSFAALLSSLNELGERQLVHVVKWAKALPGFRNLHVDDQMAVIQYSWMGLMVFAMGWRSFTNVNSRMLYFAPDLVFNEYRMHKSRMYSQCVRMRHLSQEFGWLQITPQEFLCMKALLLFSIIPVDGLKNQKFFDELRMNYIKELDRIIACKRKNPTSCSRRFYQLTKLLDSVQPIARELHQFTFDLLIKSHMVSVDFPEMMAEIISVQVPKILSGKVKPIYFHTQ
# Chain of UniProt P37231 (P37231 whole entry, looked up): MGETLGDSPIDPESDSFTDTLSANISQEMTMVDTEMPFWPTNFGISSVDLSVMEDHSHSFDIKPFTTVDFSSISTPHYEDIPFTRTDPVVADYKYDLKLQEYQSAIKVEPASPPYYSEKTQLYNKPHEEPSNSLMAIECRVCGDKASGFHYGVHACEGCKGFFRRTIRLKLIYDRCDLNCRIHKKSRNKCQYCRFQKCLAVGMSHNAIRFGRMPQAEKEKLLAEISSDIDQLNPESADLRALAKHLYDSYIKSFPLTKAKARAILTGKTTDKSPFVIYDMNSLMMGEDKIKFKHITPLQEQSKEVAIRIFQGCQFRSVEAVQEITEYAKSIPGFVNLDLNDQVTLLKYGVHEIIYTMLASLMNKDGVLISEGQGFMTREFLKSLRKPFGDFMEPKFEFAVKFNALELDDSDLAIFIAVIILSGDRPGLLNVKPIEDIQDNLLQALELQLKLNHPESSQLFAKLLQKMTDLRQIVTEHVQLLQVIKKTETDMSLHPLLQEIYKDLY
# Chain of UniProt P11511 (P11511 whole entry, looked up): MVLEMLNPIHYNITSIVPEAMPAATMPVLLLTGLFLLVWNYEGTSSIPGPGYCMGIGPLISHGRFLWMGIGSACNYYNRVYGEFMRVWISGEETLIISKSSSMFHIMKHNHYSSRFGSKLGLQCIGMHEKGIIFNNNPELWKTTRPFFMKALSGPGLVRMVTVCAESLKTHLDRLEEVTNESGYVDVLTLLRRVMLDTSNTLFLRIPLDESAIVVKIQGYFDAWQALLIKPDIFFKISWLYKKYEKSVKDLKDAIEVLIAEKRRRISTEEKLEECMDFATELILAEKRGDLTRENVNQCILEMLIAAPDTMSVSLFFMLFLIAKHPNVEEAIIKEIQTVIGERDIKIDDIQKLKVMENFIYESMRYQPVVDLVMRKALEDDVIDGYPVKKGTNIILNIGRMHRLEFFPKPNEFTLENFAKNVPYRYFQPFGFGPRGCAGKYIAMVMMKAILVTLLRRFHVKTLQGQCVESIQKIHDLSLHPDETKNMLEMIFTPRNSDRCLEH
structure (smiles),measurement,setting,value
CC1=C(C(=O)OCCN(Cc2ccccc2)c2ccccc2)C(c2cccc([N+](=O)[O-])c2)C(P2(=O)OCC(C)(C)CO2)=C(C)N1 (stereo not given),Potency,[1],"inconclusive [falling, partial curve, poor fit]"
same,Potency,[2],active: 26.6 µM
same,Potency,[3],"inconclusive [cytotoxic, single point]"
same,Potency,[4],active: 26.6 µM
same,Potency,[5],"inconclusive [cytotoxic, partial curve]"
same,Potency,[6],inconclusive [single point]
same,Potency,[7],"inconclusive [inhibitor, single point]"
same,Potency,[8],"inconclusive [cytotoxic, single point]"
same,Potency,[9],"inconclusive [falling, single point]"
same,Potency,[10],"inconclusive [inhibitor, single point]"
CO/N=C(\C(=O)N[C@@H]1C(=O)N2C(C(=O)OCOC(=O)C(C)(C)C)=C(/C=C\c3scnc3C)CS[C@H]12)c1csc(N)n1,Potency,[11],inactive
same,Potency,[2],"inconclusive [activator, single point]"
same,Potency,[12],inactive
same,Potency,[3],inactive
same,"activity change, negative = cytotoxic",[5],inconclusive: 30.5%
Cc1ccccc1OCC(O)CNCCOc1ccc(C(N)=O)cc1 (stereo not given),"ratio activity, negative = MMP loss",[2],inconclusive: 24.1%
same,Potency,[13],inactive
CCCCCCCCCCCCCCCCCCOCC(COP(=O)([O-])OCC[N+](C)(C)C)OC (stereo not given),Potency,[14],inactive
same,"activity change, negative = inhibition",[12],inconclusive: -26.7%
same,Potency,[4],"inconclusive [cytotoxic, single point]"
same,Potency,[5],"inconclusive [cytotoxic, single point]"
same,Potency,[15],"inconclusive [inhibitor, single point]"
same,Potency,[6],inactive
CCCC(=O)N1CCCN(c2nc(N)c3cc(OC)c(OC)cc3n2)CC1,Potency,[1],inactive
same,Potency,[2],"inconclusive [rising, partial curve]"
same,Potency,[16],inactive
same,activation,[17],inconclusive: 24.3% [phenotype inactive]
O=C[C@H](O)[C@@H](O)[C@H](O[C@H]1O[C@H](CO)[C@@H](O[C@H]2O[C@H](CO)[C@@H](O)[C@H](O)[C@H]2O)[C@H](O)[C@H]1O)[C@H](O)CO,Potency,[2],inactive
same,Potency,[18],"inconclusive [fluorescent, single point]"
same,"activity change, negative = inhibition",[12],inconclusive: 32.8%
same,Potency,[19],active: 7.56 µM
same,Potency,[20],"inconclusive [rising, full curve]"
same,Potency,[21],inactive
same,Potency,[17],active: 26.6 µM
same,Potency,[8],inactive
